PMC4336329 (PLoS ONE, 2015)
Screen size: about 310,000 compounds; about 2,200 (0.71%) showed an effect of 50% or more. The effect is printed as a negative number. Some of the results follow.

Molecular target: human ether-à-go-go-related gene (hERG) potassium channel (human, UniProt Q12809)
Experiment: primary screen, population patch clamp on CHO cells stably expressing hERG

Sequence of human ether-à-go-go-related gene (hERG) potassium channel (Q12809 whole entry, looked up): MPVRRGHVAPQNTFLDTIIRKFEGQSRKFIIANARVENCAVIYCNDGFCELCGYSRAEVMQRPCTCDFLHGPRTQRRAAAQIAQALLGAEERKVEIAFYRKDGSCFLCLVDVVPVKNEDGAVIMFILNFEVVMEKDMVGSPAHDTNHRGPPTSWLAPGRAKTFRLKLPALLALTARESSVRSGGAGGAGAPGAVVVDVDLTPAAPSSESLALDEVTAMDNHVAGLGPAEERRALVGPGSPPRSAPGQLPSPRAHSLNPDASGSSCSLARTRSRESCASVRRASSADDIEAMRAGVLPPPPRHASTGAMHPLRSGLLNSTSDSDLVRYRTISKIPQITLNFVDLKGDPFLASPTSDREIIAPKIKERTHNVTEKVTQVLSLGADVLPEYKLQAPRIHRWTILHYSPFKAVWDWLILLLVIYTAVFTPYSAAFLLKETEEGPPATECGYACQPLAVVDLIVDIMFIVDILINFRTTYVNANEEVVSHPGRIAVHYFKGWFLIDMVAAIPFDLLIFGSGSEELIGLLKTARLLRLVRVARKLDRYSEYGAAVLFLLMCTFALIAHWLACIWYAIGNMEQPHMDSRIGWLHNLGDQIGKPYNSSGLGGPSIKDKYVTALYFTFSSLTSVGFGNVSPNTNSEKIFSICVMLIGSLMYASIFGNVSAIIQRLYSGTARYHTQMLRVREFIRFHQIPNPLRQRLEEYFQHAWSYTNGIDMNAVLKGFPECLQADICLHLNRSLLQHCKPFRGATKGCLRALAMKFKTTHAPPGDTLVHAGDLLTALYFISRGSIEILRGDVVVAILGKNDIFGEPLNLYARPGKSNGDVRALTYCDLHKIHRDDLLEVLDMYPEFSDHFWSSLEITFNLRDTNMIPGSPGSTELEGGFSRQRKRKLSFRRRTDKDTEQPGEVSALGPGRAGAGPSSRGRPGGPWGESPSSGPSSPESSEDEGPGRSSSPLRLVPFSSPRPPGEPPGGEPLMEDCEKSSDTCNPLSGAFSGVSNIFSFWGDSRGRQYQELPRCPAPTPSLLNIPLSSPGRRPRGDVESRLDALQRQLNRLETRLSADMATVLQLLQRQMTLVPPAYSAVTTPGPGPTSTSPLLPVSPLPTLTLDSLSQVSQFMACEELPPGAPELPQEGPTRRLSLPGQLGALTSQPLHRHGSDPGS

Compound | hERG current change (%, negative = inhibition) at 1uM
CCOC(=O)N1CCN(C(=O)c2ccc3c(=O)n(Cc4ccccc4OC)c(=S)[nH]c3c2)CC1 | 1.54%
Cc1ccc(S(=O)(=O)NCCC(=O)N2CCCCCCC2)cc1 | 22.3%
O=C(COC(=O)CCC(=O)c1ccc(F)cc1)Nc1cccc(S(=O)(=O)N2CCOCC2)c1 | 2.32%
COc1ccc(NC(=O)CSc2ccc(-c3cccnc3)nn2)c(OC)c1 | 4.16%
COc1ccc(CCC(=O)N2CCN(S(=O)(=O)c3ccc(C)cc3)CC2)cc1 | 12.5%
O=C(O)c1ccc(S(=O)(=O)c2ccc3c(c2)C(=O)N(c2ccc(Br)cc2)C3=O)cc1 | 10.5%
CCC1(C)Cc2c(sc3c2c(=O)n(C)c2nnc(SCc4ccc5c(c4)OCO5)n32)CO1 (stereo not shown) | -5.58%
CC1CC(C)CN(C(=O)CN(C)S(=O)(=O)c2ccc3c(c2)c(=O)n(C)c(=O)n3C)C1 (stereo not shown) | 10.2%
Cc1ccc([N+](=O)[O-])cc1NC(=S)NC(=O)c1cccnc1 | 11.7%
O=C(Cn1[nH]c(=O)c2ccccc2c1=O)OCC(=O)c1ccccc1Cl | 5.42%
COc1cc(C(=O)Oc2cccc(C=O)c2)cc(OC)c1OC | 7.86%
Cc1ccc(NC(=O)CC(C)CC2=NS(=O)(=O)c3ccccc3N2)cc1 (stereo not shown) | 13.3%
COc1ccc(Nc2ncnc3ccc(Br)cc23)c(OC)c1 | 8.53%
COc1ccc(N2CCN(c3oc(Cc4ccccc4)nc3C#N)CC2)cc1 | -0.894%
CC1(C)NC(=O)N(CC(=O)Nc2cc(C(F)(F)F)cc(C(F)(F)F)c2)C1=O | 4.4%
CC(=O)Oc1c(C)cc(O)c2ccccc12 | 6.23%
Cc1c(C(=O)OC(C)CCN(C)C)oc2ccccc12.Cl (stereo not shown) | -7.08%
O=C(CSc1nc2ccccc2o1)NCc1ccc2c(c1)OCO2 | 8.19%
CCNC(=O)c1cc(S(=O)(=O)N(C)C)c(Cl)cc1Cl | 9.56%
CC(C)c1ccc(NC(=O)CNC(=O)Cn2cnc3ccccc3c2=O)cc1 | 2.29%
O=C(CCCc1ccccc1)NCCCc1ccccc1 | 12.2%
CCc1cc2ccc(C)cc2nc1SCC(=O)NC1CCCC1 | 9.55%

Compound | hERG current change (%, negative = inhibition) at 1uM
CCOC(=O)C1CCN(C(=O)COc2ccc(Br)cc2C)CC1 | 23%
CCOc1ccc(NC(=O)CC2C(=O)N(c3ccc(OCC)cc3)C(=S)N2C2CC2)cc1 (stereo not shown) | 13.1%
COc1ccc(Cc2nc3ccc(C(=O)NCCc4ccncc4)cc3o2)cc1OC | 17.1%
COc1ccc(OC)c(CCNC(=O)CN2C(=O)CCSc3ccccc32)c1 | 7.97%
Cl.N=c1n(CCCOc2ccccc2Cl)c2ccccc2n1CC(N)=O | 6.27%
O=c1[nH]c2cc(NCCO)c([N+](=O)[O-])cc2[nH]1 | 16.1%
CCc1cccc(NC(=O)C2CCN(S(=O)(=O)c3c(C)noc3C)CC2)c1 | 5.57%
Cn1cccc1C(=O)NNC(=O)COc1ccc(Br)cc1 | 11.5%
Cc1ccc2cccc(N)c2n1 | 9.61%
CCC1(C)Cc2ccccc2-c2nc3n(c(=O)c21)CCCCC3 (stereo not shown) | -1.54%
CCOC(=O)N1CCN(C(=O)CCCOc2ccccc2)CC1 | 10.3%
CCN(C(=O)COC(=O)c1ccccc1Cc1ccccc1)C1CCS(=O)(=O)C1 (stereo not shown) | 8.56%
CCOC(=O)C(NC(=O)CC)(Nc1nc2c(s1)CCCC2)C(F)(F)F (stereo not shown) | -2.3%
COc1cc(NC(=O)C2Cc3ccccc3CN2S(C)(=O)=O)cc(OC)c1 (stereo not shown) | 8.4%
Cc1cc2c(c(C)nn2-c2ccccc2)c(=O)o1 | 0.783%
COc1ccccc1OCC(=O)Nc1ccccn1 | 3.45%
CCOC(=O)c1c(C(=O)OCC)c(C)n(Cc2cc(OC)c(OC)c(OC)c2)c1C | 7.35%
CC(=O)c1cccc(NC(=O)CN(C)S(=O)(=O)c2ccc3c(c2)CCC(=O)N3)c1 | 8.16%
CCOC(=O)c1c(C)[nH]c(C)c1S(=O)(=O)N(C)CC(=O)Nc1ccccc1C | 22.4%
Cc1ccc(-n2cccn2)c([C@@H]2C[C@H]3CN(C)C(=O)[C@]34CCCN24)c1 | -15%
CCCCC(=O)Nc1ccc2oc(-c3cccnc3)nc2c1 | 9.98%
